Measurements: US20060057198A1, “Drug delivery from embolic agents” (BIOCOMPATIBLES UK LIMITED, priority 2003, published 2006)

Columns and labels:
[1] = Loading of diclofenac into low and high AMPS microspheres (UV of supernatant); format: physicochemical; settings: 500-710 μm, 100 mg/ml in ethanol
Procedure: 5 ml of the solution was added to 0.5 ml of low AMPS and high AMPS microspheres of the present invention produced as outlined in example 1; both samples used microspheres having size range 500-710 μm, and uptake is monitored by UV. The samples were agitated on a roller mixer. Aliquots of supernatant were taken at 5,15, 30 and 240 mins and then 24 hr. Uptake was calculated from the diclofenac remaining in solution. Both types of the microspheres were loaded with similar doses of 26 mg (low AMPS beads) and 30 mg (high AMPS beads) per ml of hydrated microspheres (FIG. 6), and in less than 30 minutes, 99% of the drug solution is located in the microspheres. […] 18-26% release in first 5 minutes with a further 35% in 48 hrs (FIG. 7).

[2] = Loading of flurbiprofen into low and high AMPS microspheres (UV of supernatant); format: physicochemical; settings: 500-710 μm, 100 mg/ml in ethanol
Procedure: Low AMPS and high AMPS microspheres of size 500-710 μm were used and drug uptake monitored by UV. The samples were agitated on a roller mixer. Aliquots of 3 0 supernatant were taken at 10, 20, 30, 60 mins and then at 2 hr, out to 24 hr. Uptake was calculated from the flurbiprofen remaining in solution. […] If microspheres were transferred to 100 ml of elutant, release was slow until eventually equilibrium was reached (FIG. 5).

[3] = Elution of ibuprofen into PBS from beads loaded under different conditions (Example 9); format: physicochemical
Procedure: Elution was carried out with 1 ml of the loaded beads transferred into a glass-brown container filled with 100 ml of PBS and timing was started. The containers were placed in the roller mixer at room temperature for the entire experiment. At predetermined times (15, 30, 60 and 3 and 5 hours) 1 ml of the solution was removed, read and then placed back into the container, so the volume remained constant for the entire experiment. […] From the data, the amount of drug eluted per 1 ml of hydrated beads was calculated and the graph plotted (FIG. 14). Controls from the experiment above were eluted in the same conditions.

[4] = system: pregnant women with painful uterine leiomyomas; settings: short courses; cited from earlier work
[5] = Loading of ibuprofen free acid into low AMPS beads (Example 8); format: physicochemical; settings: loaded from ethanol
Procedure: Five samples of 1 ml of hydrated beads Low A<PS 700 to 1 100 μm were used. For each sample, 1 ml of beads in phosphate buffered saline (PBS), measured with a 10 ml-glass cylinder, was transferred to a glass container and all the PBS was carefully removed with a glass Pasteur pipette. […] Once prepared, the absorbances of the solution and dilutions were read by UV at 263 nm to produce a standard curve. […] As controls 2 ml of ethanol was added to one vial and 2 ml of PBS was added to another vial, each vial containing 1 ml of beads. The vials were placed on the roller mixer at room temperature for the entire experiment. At predetermined time points (0, 20, 40, 60 and 120 min). 100 μl was removed, diluted as necessary (1/200) and read at 263 nm. From the readings and the standard curve, the concentration of the solution at each time point was calculated. The amount of drug loaded onto the beads was measured by the depletion of the drug in solution. From the data the mg drug loaded per 1 ml of beads were calculated and the graph plotted (FIG. 12).

[6] = Loading of ibuprofen free acid from ethanol into low AMPS microspheres (Example 5); format: physicochemical; settings: 250 mg/ml in ethanol, range over series of experiments
Procedure: (§1) The samples were agitated on a roller mixer. Samples of the supernatant were taken at 10, 20, 40, 60 mins and 24 hrs. Uptake was calculated from the ibuprofen remaining in solution. The microspheres could be loaded with different doses ranging from to 142-335 mg per ml of hydrated microspheres. Elution experiments were carried out on these microspheres (table 1). Microspheres were washed to determine quick burst in various media as in table 1. Then samples were placed in 10 ml solvent and absorbance read after 10 mins, a further 20 ml added and absorbance read after 10 mins, this was repeated up to 90 mis and elution was monitored up to 24 hrs (table 1).

women with menorrhagia = settings: 1200 mg/day, cited from earlier work
[7] = Elution of ibuprofen free acid from low AMPS microspheres (Example 5, Table 1); format: physicochemical; settings: range over experiments, up to 24 hrs
Procedure: as §1

[8] = Loading of ketoprofen into microspheres; format: physicochemical; settings: at 24 hours, 30 mg/ml in ethanol
[9] = 100 ml water, 37° C.; released in the first 15 minutes
COX-2/COX-1 = settings: 0 = equal potency; above 0 more selective to COX-1, below 0 more selective to COX-2; cited from earlier work
[10] = Loading of ketorolac into low AMPS microspheres (HPLC of supernatant); format: physicochemical
Procedure: (§2) 5 ml of the solution was added to 0.5 ml of low AMPS microspheres, of size 500-710 μm, and uptake monitored by HPLC. The samples were agitated on a roller mixer. Aliquots of supernatant were taken at 5,10,20 40 and 60 mins and then 24 hr. Uptake was calculated from the ketorolac remaining in solution. The microspheres were loaded with similar approximately doses half the concentrations of the original loading solutions per ml of hydrated microspheres (FIG. 8), and in less than 10 minutes, 99% of the drug solution is located in the microspheres. […] From the high AMPS loaded microspheres 43% released. in first 5 minutes with a 90% in 1 hrs this was followed with a slow release of a further 4% in the next 24 hrs (FIG. 9).

[11] = Release of ketorolac from microspheres into water; format: physicochemical; settings: next 24 hrs
Procedure: as §2

[12] = intra-arterial; cited from earlier work
[13] = Release of salicylic acid from microspheres into water; format: physicochemical; settings: for salicylic acid loaded released: 100 ml water, 37° C.
Procedure: UV measurement were continued for 60 hours after this. […] For both microsphere types the majority of the drug was released within the first 15 minutes (FIG. 18).

[14] = Loading of salicylic acid into microspheres; format: physicochemical
Procedure: A salicylic acid solution of 5 mg/ml in ethanol was prepared from salicylic acid obtained from Sigma Aldrich.

[15] = 10 ml water, 37° C., released in the first 5 minutes

## O=C(O)Cc1ccccc1Nc1c(Cl)cccc1Cl [Diclofenac]
[1]; high AMPS beads
  dose loaded: 30 mg per ml of hydrated microsph
[1]; low AMPS beads
  dose loaded: 26 mg per ml of hydrated microsph

## CC(C(=O)O)c1ccc(-c2ccccc2)c(F)c1 (stereo not drawn) [Flurbiprofen]
[2]; high AMPS bead
  dose loaded: 197 mg/mL
[2]; low AMPS
  dose loaded: 195 mg per ml of hydrated microsph

## CC(C)Cc1ccc(C(C)C(=O)O)cc1 (stereo not drawn) [Ibuprofen]
[3]; beads exposed to ethanol after loading
  release profile in buffer: slowed even more
[3]; where the pH has been adjusted after loading
  release of the ibuprofen into PBS: slowed significantly
[4]
  pain: successful in reducing pain
[5]
  time of optimum loading: around 20 mins
[6]
  doses loaded: 142-335 mg per ml of hydrated microspheres
Women with menorrhagia; primary menorrhagia, P less than 0.01
  median blood loss: reduced
Women with menorrhagia; women with uterine fibroids and factor VIII deficiency
  blood loss: no effect
[7]
  Elution rate: 20% -43%

## CC(C(=O)O)c1cccc(C(=O)c2ccccc2)c1 (stereo not drawn) [Ketoprofen]
[8]; high AMPS microspheres
  maximum loading: approximately 10 mg ketoprofen loaded/ml spheres
[8]; low AMPS microspheres
  maximum loading: approximately 12 mg ketoprofen loaded/ml spheres
[9]
  drug released: approximately 2.5 mg/ml of microspheres
  loaded drug released: 20-25%

## O=C(c1ccccc1)c1ccc2n1CCC2C(=O)O (stereo not drawn) [Ketorolac]
COX-2/COX-1
  Log [IC80 ratio WHMA COX-2/COX-1)]: 2 to 3
[10]; higher loading
  ketorolac loaded: 27 mg/mL
[10]; lower loading
  ketorolac loaded: 13 mg/mL
[11]; high AMPS loaded microspheres
  slow release of a further: 4%
[11]; low loaded microspheres
  further released: 5%

## COc1ccc2cc([C@H](C)C(=O)O)ccc2c1 [Naproxen]
[15]
  drug released: 6-9 mg/ml of microspheres
  loaded drug released: 17-25%
After 17 hours
  further release on transfer to fresh water: did not bring about any further release

## CCN(CC)CC(=O)Nc1c(C)cccc1C [lidocaine]
[12]
  spasm: causes a large amount of spasm

## O=C(O)c1ccccc1O [salicylic acid]
[13]; after 60 hours
  further release on transferral into fresh water: did not bring about any further release
[13]; high AMPS microspheres
  salicylic acid loaded released: approximately 30%
[13]; low AMPS microspheres
  salicylic acid loaded released: approximately 25%
[14]; after 3-4 hours, 5 mg/ml in ethanol
  maximum uptake: 3-4 mg salicylic acid/ml of microspheres
[14]; after 24 hours
  uptake: 2-3 mg/ml of microspheres

Where two headings read alike, the source gives them in different places.
